Reference: PubChem BioAssay AID360 (National Center for Advancing Translational Sciences (NCATS), 2006)
Among all 48,000 compounds or so, about 550 (1.1%) were called active. Another 4% or so got no clear call; they are omitted. Rule as the data show it: active = potency below about 15 µM; inconclusive = mostly about 16 µM to 33 µM; inactive = weaker than that. Some of the results follow.

What follows are compounds tested against Lysosomal acid glucosylceramidase (Homo sapiens) (UniProt P04062) (assay: Glucocerebrosidase). Conditions: purified enzyme, resorufin glucoside fluorescence (screen aimed at inhibitors), 20 min.
In short: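 Compounds titrated against 0.2 nM normal enzyme, 30 uM resorufin beta-D-glucopyranoside substrate, citrate/phosphate buffer with taurocholate and tween-20, pH 5.9. Reaction ran 20 min at room temperature; fluorescence (Ex 548/Em 600) gave AC50.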
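Also: the screen sought inhibitors.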
Potency is read from the fitted curve at half-maximal effect.

UniProt P04062, sequence (P04062 whole entry, looked up): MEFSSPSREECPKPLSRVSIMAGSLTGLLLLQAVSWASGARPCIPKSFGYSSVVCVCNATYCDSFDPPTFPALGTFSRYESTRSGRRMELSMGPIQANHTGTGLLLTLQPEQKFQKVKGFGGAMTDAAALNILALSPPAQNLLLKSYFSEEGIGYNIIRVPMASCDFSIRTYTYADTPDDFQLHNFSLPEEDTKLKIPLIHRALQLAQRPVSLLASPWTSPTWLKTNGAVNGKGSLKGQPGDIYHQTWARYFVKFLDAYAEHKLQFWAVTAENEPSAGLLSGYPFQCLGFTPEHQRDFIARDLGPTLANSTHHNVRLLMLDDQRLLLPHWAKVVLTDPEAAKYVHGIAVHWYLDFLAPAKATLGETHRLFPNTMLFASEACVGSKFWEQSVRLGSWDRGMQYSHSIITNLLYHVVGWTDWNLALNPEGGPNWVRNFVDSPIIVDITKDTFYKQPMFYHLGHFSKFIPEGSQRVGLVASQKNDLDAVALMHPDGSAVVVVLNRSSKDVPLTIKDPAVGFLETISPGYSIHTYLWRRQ

SMILES | Potency
COc1cc(S(=O)(=O)N2CCCCC2)ccc1NC(=O)c1ccc(F)cc1 | inactive: > 76.9 µM
O=C(COC(=O)C1(c2ccc(F)cc2)CCCC1)N1CCN(C(=O)c2ccco2)CC1 | inactive: > 76.9 µM
O=C(COC(=O)c1ccco1)Nc1ccc2c(c1)OCCO2 | inactive: > 76.9 µM
COc1ccc(N2CCN(S(=O)(=O)c3ccc(Cl)c(C(F)(F)F)c3)CC2)cc1 | inactive: > 76.9 µM
Cc1cc(NC(=O)CN2CCN(c3ccccc3O)CC2)no1 | inactive: > 76.9 µM
Oc1cccc(Nc2nc(NCC3CCCO3)c3ccccc3n2)c1 (stereo unspecified) | active: 7.62 µM
CCCCCCC(=O)N(O)C1CC(=O)N(Cc2ccccc2)C1=O (stereo unspecified) | inactive: > 76.9 µM
CCCn1c(=O)c2ccccc2n2c(SCc3c(C(=O)OCC)oc4ccccc34)nnc12 | inactive: > 76.9 µM
COc1ccc(OC)c(NC(=O)Cn2cccc2)c1 | inactive: > 76.9 µM
O=S(=O)(N1CCCCC1)N1CCCN(S(=O)(=O)N2CCCCC2)CC1 | inactive: > 76.9 µM
CC(C)CNC(=O)c1cc(-c2ccc(Br)cc2)on1 | inactive: > 76.9 µM
Cc1ccc(-c2c(C)c(-c3ccc(F)cc3)nc(N)c2C#N)o1 | inactive: > 76.9 µM
COc1ccc(N2C(=O)C(Cl)=C(N(CCO)Cc3ccccc3)C2=O)cc1 | inactive: > 76.9 µM
C=CCn1cnc2c(c1=O)c1nc3ccccc3nc1n2Cc1ccccc1 | inactive: > 76.9 µM
Cc1cccn2c(=O)c3cc(C#N)c(=NC(=O)c4ccc5c(c4)OCO5)n(CC(C)C)c3nc12 | inactive: > 76.9 µM
CC1(C)OC(=O)N(c2ccccn2)C1(C)O (stereo unspecified) | inactive: > 76.9 µM
Cc1ccccc1CN1CCN(CC(=O)NCc2ccco2)C1=O | inactive: > 76.9 µM
O=C1c2ccccc2C(=O)N1CCCC(=O)N1CCCc2ccccc21 | inactive: > 76.9 µM
Cn1c(SCC(N)=O)nnc1C1CCN(C(=O)NC2CCCCC2)CC1 | inactive: > 76.9 µM
COc1ccccc1C1/C(=C(/O)c2ccc(Cl)cc2)C(=O)C(=O)N1CCN1CCOCC1 (stereo unspecified) | inactive: > 76.9 µM
CCC(C)(C)NC(=O)CN(CC1CCCO1)C(=O)CCC(=O)Nc1nccs1 (stereo unspecified) | inactive: > 76.9 µM
CCSc1nnc2c(Cl)cc(Cl)cn12 | inactive: > 76.9 µM
O=C(CN1CC(=O)Oc2ccccc21)OCC(=O)c1ccccc1 | inactive: > 76.9 µM

SMILES | Potency
COc1ccc(OC)c(NC(=O)C(CC(C)C)NC(=O)C2CCCCC2)c1 (stereo unspecified) | inactive: > 76.9 µM
COc1cc2c(cc1OC)C1=C(C#N)CCC(=O)N1CC2 | inactive: > 76.9 µM
CCOC(=O)N1CCN(C(=O)CSCC(=O)Nc2nc(-c3ccccc3)cs2)CC1 | inactive: > 76.9 µM
Cc1cc(C(=O)Nc2ccc(S(=O)(=O)Nc3nccs3)cc2)c(C)o1 | inactive: > 76.9 µM
CC(=O)N1C(=O)N(C)C2C1N(C)C(=O)N2C(C)=O (stereo unspecified) | inactive: > 76.9 µM
Cc1nc2ncnn2c(N2CCC(C(=O)NC3CCCC3)CC2)c1Cc1ccccc1 | inactive: > 76.9 µM
C=CCn1c2ccccc2c2nnc(SCC(=O)NC(C(=O)OC)C(C)C)nc21 (stereo unspecified) | inactive: > 76.9 µM
CC(NC(=O)C1CC2CCCC(C1)C2=O)c1ccccc1 (stereo unspecified) | inactive: > 76.9 µM
Cc1cc(C(=O)CSc2nnc(N)s2)c(C)n1CCc1ccc(F)cc1 | inactive: > 76.9 µM
CC(=O)c1cn(CC(=O)NCC2CCCO2)c2ccccc12 (stereo unspecified) | inactive: > 76.9 µM
CC1CCCCN1S(=O)(=O)c1ccc2c(c1)oc(=O)n2CC(=O)O (stereo unspecified) | inactive: > 76.9 µM
CCOC(=O)c1c(NC(=O)CSc2nnc(-c3cccnc3)o2)sc(C(C)=O)c1C | inactive: > 76.9 µM
CN(C1CCCCC1)S(=O)(=O)c1ccccc1 | inactive: > 76.9 µM
Cc1ccc(-c2nnc3ccc(SCC(=O)N4CCCCC4)nn23)cc1 | inactive: > 76.9 µM
Cc1nnc2n1NC(c1ccc(Cl)cc1)C(C(=O)N1CCC(C)CC1)S2 (stereo unspecified) | inactive: > 76.9 µM
CC(=O)OC(Cn1nc(C)cc1C)c1ccccc1 (stereo unspecified) | inactive: > 76.9 µM
Cc1ccc(-c2noc(CCC(=O)Nc3cc(C)ccn3)n2)cc1 | inactive: > 76.9 µM
Cc1c(C#N)c2ncn(CCCN(C)C)c(=O)c2n1-c1ccccc1 | inactive: > 76.9 µM
CCn1ncc(C(=O)Nc2ccc(S(=O)(=O)N3CCCC3)cc2)c1C | inactive: > 76.9 µM
Clc1ss/c(=N\c2ccccn2)c1Cl | inactive: > 76.9 µM
Cn1c(=O)c2ncn(CC(=O)NCCOc3ccccc3)c2n(C)c1=O | inactive: > 76.9 µM
CCOc1ccc2cc(C#N)c(SCC(=O)N3CCCC3)nc2c1 | inactive: > 76.9 µM
CCNc1nc(N2CCOCC2)nc(N(c2ccccc2)c2ccccc2)n1 | inactive: > 76.9 µM

SMILES | Potency
CC1(C)CC(=O)C2=C(C1)N(CC1CCCO1)C(=O)C2(NC(=O)c1cccnc1)C(F)(F)F (stereo unspecified) | inactive: > 76.9 µM
Cc1cc(C(F)(F)F)nc(SCC(=O)NC2CC3CCC2C3)n1 (stereo unspecified) | inactive: > 76.9 µM
CCOC(=O)C1CCN(Cc2ccccc2C(F)(F)F)CC1 | inactive
CCn1c(Cn2nnc(-c3ccccc3)n2)nnc1SCC(=O)Nc1ccc(N(C)C)cc1 | inactive
O=C1CC(N2CCN(S(=O)(=O)c3ccc(Cl)cc3)CC2)C(=O)N1CCc1ccccc1 (stereo unspecified) | inactive: > 76.9 µM
COc1cccc(OCCCCN2CCCCC2)c1 | inactive: > 76.9 µM
CCCN1Cc2cccc(C(=O)NCc3ccccc3)c2C1=O | inactive: > 76.9 µM
Cn1c(=O)c2c(nc(CN3CCc4ccccc4C3)n2Cc2ccccc2)n(C)c1=O | inactive: > 76.9 µM
O=C(NCCC1=CCCCC1)C1COc2ccccc2O1 (stereo unspecified) | inactive: > 76.9 µM
CCOC(=O)CSc1nc2ccccc2c(=O)n1Cc1ccco1 | inactive: > 76.9 µM
N#Cc1nc(-c2ccccc2F)oc1NCc1cccc2c1OCO2 | inactive: > 76.9 µM
COCCN(CCOC)Cc1cc(=O)oc2cc3c(cc12)CCC3 | inactive: > 76.9 µM
CSCC[C@H](NC(=O)OC(C)(C)C)c1nnc(SCc2ccccc2)o1 | inactive
CC(C(=O)Nc1ccccn1)N1C(=O)C2C3C=CC(C3)C2C1=O (stereo unspecified) | inactive: > 76.9 µM
O=C(Nc1nnc(C2CC2)s1)c1cccc(S(=O)(=O)N2CCc3ccccc32)c1 | inactive: > 76.9 µM
CN(Cc1ccccc1)Cc1nc2c(c(=O)n(C)c(=O)n2C)n1Cc1ccccc1Cl | inactive: > 76.9 µM
CCC(=O)N1c2ccccc2[C@@H](N(C(C)=O)c2ccccc2)C[C@H]1C | inactive: > 76.9 µM
COc1cc(C)nc(N2CCCC(C(=O)Nc3cccc(Cl)c3Cl)C2)n1 (stereo unspecified) | inactive: > 76.9 µM
O=C(c1cc(-c2ccncc2)nc2ccccc12)N1CCN(c2ccc(N3CCOCC3)nn2)CC1 | inactive: > 76.9 µM
CC(Sc1nnc(C2CCCCC2)n1N)C(=O)NCc1ccc2c(c1)OCO2 (stereo unspecified) | inactive: > 76.9 µM
COc1cc(C)nc(OCCNC(=O)COc2ccc(Cl)cc2C)n1 | inactive: > 76.9 µM
Cc1cc(=O)c2n(Cc3ccc(Cl)cc3)nc[n+]2[nH]1 | inactive: > 76.9 µM
COc1ccc(C(N)CCc2ccco2)cc1 (stereo unspecified) | inactive: > 76.9 µM

SMILES | Potency
Cc1ccccc1-n1c(-c2cccnc2)n[nH]c1=S | inactive: > 76.9 µM
Cn1nccc1C(=O)c1ccc(Cl)cc1 | inactive: > 76.9 µM
CCOc1ccc(OCc2ccc(C(=O)NCc3ccncc3)o2)cc1 | inactive: > 76.9 µM
COc1cc(NC(=O)C2CCCO2)c(OC)cc1NC(=O)c1ccccc1 (stereo unspecified) | inactive: > 76.9 µM
Cc1ncc2c(c1OC(=O)c1ccccc1)COC(C)(C)OC2 | inactive: > 76.9 µM
CS(=O)(=O)NC1c2cccc3cccc(c23)C1Sc1nncn1/N=C/c1ccco1 (stereo unspecified) | inactive: > 76.9 µM
COc1cc(C)nc(N2CCC(C(N)=O)CC2)n1 | inactive: > 76.9 µM
COc1cccc(C2=NOC(C(=O)Nc3cccc(C(C)=O)c3)C2)c1OC (stereo unspecified) | inactive: > 76.9 µM
COc1cc(NS(=O)(=O)c2ccc(OC)c(C)c2C)c(OC)cc1Cl | inactive: > 76.9 µM
COc1ccccc1NC(=O)c1ccc(S(=O)(=O)N2CCOCC2)cc1 | inactive: > 76.9 µM
O=C(CSc1nc2ncccc2[nH]1)Nc1ccc2c(c1)OCCO2 | inactive: > 76.9 µM
CCOC(=O)c1cc2sc(C)cc2n1CC(=O)Nc1cccc(C)c1C | inactive: > 76.9 µM
COc1cc(NC(=O)CSc2nnnn2-c2ccccc2)cc(OC)c1OC | inactive: > 76.9 µM
CC1(C)OC(=O)C(=CNc2ccccc2F)C(=O)O1 | inactive: > 76.9 µM
Cn1c(=N)n(CC(O)c2cccc3ccccc23)c2ccccc21 (stereo unspecified) | inactive
Cc1ccc(NC(=O)N2CCC(C(N)=O)CC2)cc1 | inactive: > 76.9 µM
COc1cccc(C2CC(c3ccccc3Cl)n3ncnc3N2)c1 (stereo unspecified) | inactive: > 76.9 µM
CCOC(=O)N1CCN(C(=O)c2ccc3c(c2)ncn3C2CCCC2)CC1 | inactive: > 76.9 µM
COc1ccc(CCNC(=O)c2nnc(Cc3c(F)cccc3Cl)o2)cc1OC | inactive: > 76.9 µM
O=C(NCCN1CCCCC1)c1cc2ccccc2[nH]1 | inactive: > 76.9 µM
CCCCCOc1ccc(C(=O)NC(C(=O)O)C(C)C)cc1 (stereo unspecified) | inactive: > 76.9 µM
Cc1cccc(C(=O)NCCN2CCN(c3ccccc3)CC2)c1 | inactive: > 76.9 µM
